# Assay results reported in PubChem BioAssay AID504332 (National Center for Advancing Translational Sciences (NCATS), 2011).
# Several values for one entry are separate records, joined by “and”; a condition that tells them apart may be missing. Equal entries are not always repeated. About 31,000 (8.9%) of roughly 350,000 compounds were called active. Inconclusive results, whose numbers are uncertain, are shown with a selection of clear calls. Calls come from the whole dose curve; as a rule, active = well fitted inhibition curve with a large enough effect; inconclusive = small, poorly fitted or top-dose-only effect; inactive = no such curve, though single readings can be large or run the other way. Potencies beside an inconclusive call are fits to weak or partial responses and may not hold up.
# Molecular target: Histone-lysine N-methyltransferase EHMT2 (Homo sapiens) (UniProt Q96KQ7)
# Sequence of UniProt Q96KQ7 (Q96KQ7 whole entry, looked up): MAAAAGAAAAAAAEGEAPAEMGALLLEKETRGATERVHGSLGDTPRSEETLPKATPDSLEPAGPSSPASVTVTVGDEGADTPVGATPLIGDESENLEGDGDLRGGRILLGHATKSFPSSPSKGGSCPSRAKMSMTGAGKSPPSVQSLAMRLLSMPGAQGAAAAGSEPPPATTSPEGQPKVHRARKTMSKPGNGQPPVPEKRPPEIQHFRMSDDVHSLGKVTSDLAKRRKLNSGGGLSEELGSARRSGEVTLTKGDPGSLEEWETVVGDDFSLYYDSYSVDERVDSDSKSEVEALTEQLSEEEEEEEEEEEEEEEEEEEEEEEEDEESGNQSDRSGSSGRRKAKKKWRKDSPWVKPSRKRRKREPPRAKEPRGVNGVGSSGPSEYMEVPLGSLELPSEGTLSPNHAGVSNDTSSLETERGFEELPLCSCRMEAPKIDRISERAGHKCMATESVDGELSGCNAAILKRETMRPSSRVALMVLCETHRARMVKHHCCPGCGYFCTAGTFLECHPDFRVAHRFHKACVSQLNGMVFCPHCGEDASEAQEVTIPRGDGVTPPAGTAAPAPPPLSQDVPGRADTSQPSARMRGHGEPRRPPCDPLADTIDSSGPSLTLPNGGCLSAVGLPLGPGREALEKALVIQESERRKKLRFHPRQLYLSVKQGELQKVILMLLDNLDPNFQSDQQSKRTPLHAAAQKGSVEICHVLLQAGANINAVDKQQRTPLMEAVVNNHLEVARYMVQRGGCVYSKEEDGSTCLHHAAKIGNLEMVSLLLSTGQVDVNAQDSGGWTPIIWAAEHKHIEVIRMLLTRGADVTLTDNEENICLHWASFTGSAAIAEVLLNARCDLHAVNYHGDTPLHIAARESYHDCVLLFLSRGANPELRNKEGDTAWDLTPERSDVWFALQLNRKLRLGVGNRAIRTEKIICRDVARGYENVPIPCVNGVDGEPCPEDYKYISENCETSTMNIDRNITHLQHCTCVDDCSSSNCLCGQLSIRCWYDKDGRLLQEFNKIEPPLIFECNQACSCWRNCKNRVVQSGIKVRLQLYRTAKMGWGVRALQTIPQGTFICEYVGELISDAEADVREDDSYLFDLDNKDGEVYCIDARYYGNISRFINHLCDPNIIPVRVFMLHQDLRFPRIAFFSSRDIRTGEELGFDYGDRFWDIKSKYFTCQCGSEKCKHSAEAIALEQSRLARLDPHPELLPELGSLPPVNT
# Assay: qHTS Assay for Inhibitors of Histone Lysine Methyltransferase G9a; note: nearly all actives have a fitted effect of over 75% in size
# Conditions: G9a H3K9 monomethylation, AlphaScreen, 2 h; activity, negative = inhibition: at 59 µM (top of the series) unless noted
# Method in brief: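 Chemiluminescent proximity detection of H3K9 monomethylation, read after 10 min bead incubation in the dark. Reaction: 20 nM G9a, 500 nM biotin-H3K9 peptide, 20 uM SAM cofactor, 2 h, room temperature, following 15 min enzyme-compound preincubation.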
# % is set by controls: 0 for no effect and ±100 for the full control effect; potency is the fitted concentration of half-maximal effect; tags give direction and shape of the fitted curve.
SMILES,Potency,"activity, negative = inhibition"
CC(=O)NCCOC(=O)Nc1sc(=S)n(C)c1C,"inconclusive: 22.4 µM [inhibitor, single point]",
COc1ccc(CC(=O)NNc2ncnc3c2cnn3C)cc1OC,"inconclusive: 39.8 µM [inhibitor, single point]",
COc1ccc(Cc2noc(CN3CCCN(C4Cc5ccccc5C4)CC3)n2)cc1OC,active: 39.8 µM,
C/C(N)=C(/C#N)C(=O)CSc1nnc(Nc2cccc(C)c2)s1,"inconclusive: 39.8 µM [inhibitor, single point]",
CCC(C(=O)NCc1cccnc1)n1nc(C)n2c(cc3occc32)c1=O (configuration not stated),,inactive: -11% [at 102 µM]
CCN(Cc1ccncc1)S(=O)(=O)c1ccc(C(C)=O)cc1,"inconclusive: 25.1 µM [inhibitor, single point]",
COc1ccc(OC)c2c(C)cc(N3CCN(C(=O)c4ccc(F)cc4)CC3)nc12,"inconclusive: 39.8 µM [inhibitor, single point]",
Cc1cc(NC(=O)c2cncc(Br)c2)ccc1NC(=O)c1cc2ccccc2o1,"inconclusive: 89.1 µM [inhibitor, single point]",
CCN(CC)c1ccc(NC(=O)c2c(C)nn(-c3ccc(F)cc3)c2-n2cccc2)c(C)c1,active: 3.16 µM,
COc1ccccc1C(=O)NC(CCSC)C(=O)NNC(=O)c1ccccc1O (configuration not stated),,inactive: 80.7% [at 12.7 µM]
COc1cc(OC)cc(C(=O)NC(=S)Nc2ccc(Cl)c(C(=O)O)c2)c1,active: 44.7 µM,
O=C(CSc1nnc(-c2ccccn2)n1Cc1ccco1)c1ccc(-c2ccccc2)cc1,active: 44.7 µM,
COc1ccc2c(c1)O[C@@H](c1cccc(C(F)(F)F)c1)[C@H](O)C2=O,"inconclusive: 79.4 µM [inhibitor, single point]",
CCc1ccccc1NC(=O)CN(C)S(=O)(=O)c1cccc2nsnc12,,inactive: -5.77%
CCc1oc(C(=O)OC)cc1CSC(=N)N,active: 50.1 µM,
[O-][n+]1c2ccccc2[n+]([O-])c2cc(O)ccc21,active: 1.41 µM,
CC(O)CNCCNCc1c(OCc2ccccc2)ccc2ccccc12 (configuration not stated),"inconclusive: 56.2 µM [inhibitor, partial curve, poor fit]",
Cc1ccc(-n2[nH]c(C)c(/C=N/n3c(C)nc4ccccc4c3=O)c2=O)cc1,,inactive: -5.88% [at 102 µM]
CCOc1cc(C(c2c(C)[nH]n(-c3ccccc3)c2=O)c2c(C)[nH]n(-c3ccccc3)c2=O)ccc1O,"inconclusive: 3.16 µM [inhibitor, partial curve, poor fit]",
O=C(Nc1ccc(Cl)cc1)C1c2cccc[n+]2CC(=O)N1Cc1ccc2c(c1)OCO2 (configuration not stated),active: 22.4 µM,
Cc1ccc2[nH]c(=O)c(CNC(C)C)cc2c1,"inconclusive: 1.41 µM [inhibitor, single point]",
C/C(=N\NC(=O)Cc1csc(N2CCOCC2)n1)c1ccc(Cl)c(Cl)c1,,inactive: 6.42% [at 102 µM]
Cc1ccc(-c2csc(NC(=O)C3CC(=O)N(Cc4ccco4)C3)n2)cc1 (configuration not stated),"inconclusive: 56.2 µM [inhibitor, partial curve]",
CCCCC(=O)OCC(=O)Nc1ccc(SC(F)F)cc1,,inactive: 11.7% [at 102 µM]

SMILES,Potency,"activity, negative = inhibition"
CCOC(=O)c1c(NC(C)=O)sc(C(=O)NC2CCCC2)c1C,,inactive: -3.82% [at 102 µM]
CCOc1ccc(C(=O)COC(=O)c2cc([N+](=O)[O-])ccc2N2CCOCC2)cc1,"inconclusive: 35.5 µM [inhibitor, partial curve, poor fit]",
CCSC1=C(C#N)C(c2cccc(O)c2)CC(=O)N1 (configuration not stated),,inactive: -17.7% [at 102 µM]
C=CCNc1nc(Nc2ccc([N+](=O)[O-])cc2)nc(N2CCCC2)n1,,inactive: -29.4% [at 102 µM]
O=C1CSc2ccc(C(=O)Nc3cccc(S(=O)(=O)Nc4ccc(Br)cc4)c3)cc2N1,"inconclusive: 3.55 µM [inhibitor, single point]",
C=C(Br)CN1CCN(CC(=C)Br)CC1,"inconclusive: 3.55 µM [inhibitor, single point]",
COc1ccc(-c2noc(N3CCC(C(=O)Nc4cccc(C)c4C)CC3)n2)cc1,,inactive: -3.5%
O=C1Nc2ccccc2/C1=N/N=C/c1ccc(-c2ccc([N+](=O)[O-])cc2)o1,"inconclusive: 44.7 µM [inhibitor, partial curve, poor fit]",
CCCN(CCC)C(=O)c1ccc2c(c1)S(=O)(=O)c1ccccc1C2=O,active: 79.4 µM,
CCC(=O)Nc1ccc(N2CCN(Cc3ccccc3)CC2)cc1,active: 50.1 µM,
CCc1ccc(NC(=O)CSc2nc3nc(C)cc(C)n3n2)cc1,,inactive: -7.53%
Cc1ccc(S(=O)(=O)N2CCN(C(=O)Cc3sc(C)nc3-c3ccc(F)cc3)CC2)c(C)c1,,inactive: -43.6% [at 102 µM]
CCC(=O)N1c2ccccc2NC2=C(C(=O)CCC2)C1c1ccc(N(C)C)cc1 (configuration not stated),active: 50.1 µM,
N#Cc1c(-c2ccccc2)nc(SCC(=O)Nc2nnc(C(F)(F)F)s2)[nH]c1=O,active: 50.1 µM,
C=CCn1c(SCC(=O)N2CC(C)OC(C)C2)nnc1-c1ccncc1 (configuration not stated),active: 7.94 µM,
CN(C)CCCn1c(SCC(=O)Nc2nc(-c3cccc(Br)c3)cs2)nc2ccccc2c1=O,,inconclusive: -58.1% [inhibitor]
CC(=O)Nc1cccc(NC(=O)c2cccc(S(=O)(=O)N3CCN(Cc4ccccc4)CC3)c2)c1,"inconclusive: 44.7 µM [inhibitor, partial curve, poor fit]",
Cc1cc(C)n(CCNC(=O)c2ccco2)n1,"inconclusive: 89.1 µM [inhibitor, single point]",
CCOc1ccc(/C=C/c2nc(C#N)c(N3CCN(CC)CC3)o2)cc1,"inconclusive: 20 µM [inhibitor, partial curve, poor fit]",
N/C(Cn1cncn1)=N\OC(=O)c1ccc(Cl)cc1,"inconclusive: 50.1 µM [inhibitor, partial curve]",
CCOC(=O)Cn1nnnc1CN(Cc1ccc(OC)cc1)Cc1cc2cc(C)ccc2[nH]c1=O,"inconclusive: 39.8 µM [inhibitor, single point]",
Cc1c(C(=O)N2CCc3ccccc3C2)oc2ccc(S(=O)(=O)N3CC(C)CC(C)C3)cc12 (configuration not stated),"inconclusive: 22.4 µM [inhibitor, single point]",
CCOC(=O)c1c(C)[nH]c2c1-c1ccccc1C(=O)C2=O,,inactive: -9.77%
O=C(CSc1nc(O)cc(=O)n1-c1ccccc1)c1ccc(Br)cc1,"inconclusive: 50.1 µM [inhibitor, partial curve, poor fit]",

SMILES,Potency,"activity, negative = inhibition"
COC(=O)C1CCN(C(c2cc(OC)c(OC)c(OC)c2)c2sc3nc(C)nn3c2O)CC1 (configuration not stated),"inconclusive: 89.1 µM [inhibitor, partial curve, poor fit]",
Cc1[nH]c2ccc(C(=O)N3CCN(c4ccccc4F)CC3)cc2c1C,"inconclusive: 25.1 µM [inhibitor, partial curve, poor fit]",
Cc1cc(/C=C2\SC(N)=NC2=O)c(C)n1-c1ccccc1,,inconclusive: -92.1% [inhibitor]
COc1cc(OC)cc(C(=O)NC(=S)NCCc2ccccc2)c1,"inconclusive: 2.82 µM [inhibitor, full curve, poor fit]",
CN=C(Nc1ccc(C(=O)OC)s1)c1ccc(Cl)cc1,"inconclusive: 17.8 µM [inhibitor, partial curve, poor fit]",
O=C1CC(c2cccs2)Sc2nc3ccccc3n21 (configuration not stated),"inconclusive: 25.1 µM [inhibitor, single point]",
CNCCCOc1ccc(C)cc1Br,"inconclusive: 7.08 µM [inhibitor, partial curve, poor fit]",
COc1ccc(S(=O)(=O)Cc2ccc(C(=O)N3CCN(c4ccc(Cl)cc4)CC3)o2)cc1,"inconclusive: 89.1 µM [inhibitor, single point]",
CCOC(=O)N1CC=C2C(C#N)=C(N)C(C#N)(C#N)[C@H](c3ccc(OC(C)C)c(OCC)c3)[C@H]2C1,,inconclusive: -68.2% [inhibitor]
O=C(CNCc1ccc(F)cc1)Nc1ccc(C(=O)N2CCCCC2)cc1,active: 10 µM,
O=C(NCCS(=O)(=O)N1CCCCCC1)c1ccc(F)cc1,,inactive: -1.5% [at 0.501 µM]
COc1ccccc1C(c1nnnn1Cc1ccccc1)N1CCC(C(N)=O)CC1 (configuration not stated),"inconclusive: 39.8 µM [inhibitor, single point]",
COc1ccc2c(c1OC)C(=O)OC2,"inconclusive: 28.2 µM [inhibitor, partial curve, poor fit]",
O=[N+]([O-])c1ccc(Nc2cccc(F)c2)nc1,active: 50.1 µM,
COc1ccc(CCc2nnc(N)s2)cc1OC,,inactive: 8.8% [at 102 µM]
NC(=O)c1ccccc1NC(=O)CSC1=NCCS1,active: 50.1 µM,
CCOc1ccc(Cl)cc1C(c1c(C)[nH][nH]c1=O)c1c(C)[nH][nH]c1=O,,inactive: -12.8% [at 102 µM]
CCOC(=O)c1cccc(N2C(=O)c3ccccc3S2(=O)=O)c1,"inconclusive: 2.24 µM [inhibitor, partial curve, poor fit]",
CC(Oc1ccc(Br)cc1)C(=O)NCC(c1ccco1)N1CCCCC1 (configuration not stated),,inactive: -6.2% [at 102 µM]
CC(Sc1n[nH]c(=O)[nH]c1=O)C(=O)OCc1ccccc1 (configuration not stated),"inconclusive: 25.1 µM [inhibitor, partial curve, poor fit]",
Cc1ccc(Br)cc1S(=O)(=O)Nc1cccnc1,"inconclusive: 31.6 µM [inhibitor, single point]",
CC1(C)CC(=O)N(c2ccc(Cl)cc2Cl)C(=O)C1,,inactive: -0.817% [at 102 µM]
CC(C)Cc1nc2ccc(N)cc2[nH]1,"inconclusive: 56.2 µM [inhibitor, partial curve, poor fit]",
NCCSSCCN,active: 25.1 µM and active: 22.4 µM,
